Experimental data published in US10858425B2, “Pan-ELR+ CXC chemokine antibodies” (Eli Lilly and Company, priority 2013, dated 2020).

Tests used:
human CXCL5 (ENA-78) = target: T1, human CXCL5 (ENA-78) (Homo sapiens, UniProt P42830); assay: Biacore surface plasmon resonance binding to human CXCL5; details: 25° C.
T1 sequence (P42830 41-114 limits assumed): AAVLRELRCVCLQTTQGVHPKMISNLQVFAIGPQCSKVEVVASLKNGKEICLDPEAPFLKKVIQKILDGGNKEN
Protocol: Biacore 2000 instrument and Biacore 2000 Evaluation Software Version 4.1 are used for surface plasmon resonance analysis. A […] chip is prepared using manufacturer's EDC/NHS amine coupling method. Briefly, the surfaces of all four flow cells are activated by injecting a 1:1 mixture of EDC/NHS for 7 minutes at 10 μL/min. Protein A is diluted to 100 μg/mL in 10 mM acetate, pH 4.5 buffer, and immobilized to achieve approximately 10,000 RU onto all 4 flow cells by 7-minute injection at a flow rate of 10 μL/minute. Unreacted sites are blocked with a 7-minute injection of ethanolamine at 10 μL/minute. Two injections of glycine (pH 1.5) for 30 seconds at 10 μL/minute are used to remove any non-covalently associated protein. Running buffer is HBS-EP+.
Antibody 1 or Antibody 2 is diluted to 2 μg/mL in running buffer, and approximately 400-600 RU is captured in flow cell (Fc). Ligands are diluted from 100 μg/mL to 50 nM in running buffer and then two-fold serially diluted in running buffer to 3.125 nM. Duplicate injections of each ligand concentration are injected at 100 μL/min for 150 seconds followed by a dissociation phase. […] The on-rate (kon) and off-rate (koff) for each ligand are evaluated using a “1:1 (mass transfer) Binding” binding model. The affinity […] is calculated from the binding kinetics according to the relationship: KD=koff/kon.

human CXCL3 = target: T2, human CXCL3 (Homo sapiens, UniProt P19876); assay: FLIPR neutralization using HMEC cells expressing human CXCR2, CXCL3; type: cell-based; details: CXCL3 10 nM; HMEC-huCXCR2 FLIPR
T2 sequence (P19876 35-107): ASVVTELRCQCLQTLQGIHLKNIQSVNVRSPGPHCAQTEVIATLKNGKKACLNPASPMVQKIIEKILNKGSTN
Source text: Since all of the ELR+ CXC chemokines can bind CXCR2 receptor, cells expressing CXCR2 were selected for in vitro studies. HMEC-huCXCR2 is an immortalized human endothelial cell line transduced with retrovirus for expression of human CXCR2 receptor. HMEC cells expressing human CXCR2 are able to induce intracellular Ca^2+ influx in response to human, cynomolgus monkey, rat, and mouse ELR+CXC chemokines. Intracellular Ca^2+ influx can be detected by a Fluorescent Imagine £late Reader (FLIPR). Chemokine neutralization should therefore also neutralize intracellular Ca^2+ influx induced by these chemokines.
HMEC-huCXCR2 is maintained in MCDB 31 medium supplemented with 10% fetal bovine serum, 2× GlutaMax, 1× non-essential amino acids, 1 μg/mL hydrocortisone, 10 ng/mL human Epidermal Growth Factor, and 0.4 μg/mL puromycin at 37° C. in 5% CO2. […] A cell plate and a ligand-antibody plate are loaded into a Fluorescent Imagine Plate Reader (FLIPR-3, Molecular Devices) programmed to transfer 50 μL of ligand-antibody to wells of the cell plate. Fluorescence is recorded every second for 90 seconds. The change in fluorescence (DRFU) is calculated from images 10 to 90. DRFU versus log (antibody concentration) is plotted and IC50 values are determined by nonlinear regression using Graph Pad Prism. […] Data are expressed as the mean of replicates. […]

[1] = tested on: SKOV3-Luc ovarian cancer cells; assay: SKOV3-Luc ovarian cancer xenograft model; type: in vivo, athymic nude female mice
Protocol: SKOV3-Luc is a human ovary cancer cell line that expresses firefly luciferase gene. SKOV3-Luc cells are often used in vivo to establish human ovarian adenocarcinoma tumor growth.
SKOV3-Luc ovarian cancer cells were mixed 1:1 with matrigel and implanted subcutaneously in the right rear flank of athymic nude female mice at 3.0×10^6 cells per injection. Mice were randomized into 4 groups at baseline according to tumor volume after the xenografts were grown to an average tumor volume of 200 mm^3. Mice received either control IgG4 antibody (2.5 mg/kg once a week), cisplatin (2.5 mg/kg once a week), Antibody 1 (20 mg/kg once a week), or a combination of cisplatin (2.5 mg/kg once a week) and Antibody 1 (20 mg/kg once a week) by intraperitoneal injection.

B1: Antibody 1: antibody with heavy chain SEQ ID NO: 1 and light chain SEQ ID NO: 3, expressed in NSO cells (antibody)
heavy: QVQLVQSGAEVKKPGASVKVSCKASGYEFTSYWIHWVRQAPGQGLEWMGNISPNSGSANYNEKFKSRVTMTRDTSTSTVYMELSSLRSEDTAVYYCAREGPYSYYPSREYYGSDLWGQGTLVTVSSASTKGPSVFPLAPCSRSTSESTAALGCLVKDYFPEPVTVSWNSGALTSGVHTFPAVLQSSGLYSLSSVVTVPSSSLGTKTYTCNVDHKPSNTKVDKRV[human IgG4 Fc with S228P (EU numbers) not spelt out]
light: EIVLTQSPATLSLSPGERATLSCRASQSISNNLHWYQQKPGQAPRLLIYYTSRSVSGIPARFSGSGSGTDFTLTISSLEPEDFAVYYCGQNNEWPEVFGGGTKVEIKRTVAAPSVFIFPPSDEQLKSGTASVVCLLNNFYPREAKVQWKVDNALQSGNSQESVTEQDSKDSTYSLSSTLTLSKADYEKHKVYACEVTHQGLSSPVTKSFNRGEC
kon (human CXCL5 (ENA-78)): 5.43 ± 0.61 (1/Ms) × 10^5
IC50 (human CXCL3): 0.731 (±0.187) ug/mL
Average Tumor Volume ([1]; Day 14): 109.35 mm^3
Average Tumor Volume ([1]; Day 19): 173.95 mm^3
Average Tumor Volume ([1]; Day 22): 234.58 mm^3
Average Tumor Volume ([1]; Day 26): 364.42 mm^3
Average Tumor Volume ([1]; Day 32): 739.26 mm^3
Average Tumor Volume ([1]; Day 35): 821.83 mm^3
Average Tumor Volume ([1]; Day 40): 1026.68 mm^3
Average Tumor Volume ([1]; Day 43): 1098.72 mm^3
